Measurements published in PubChem BioAssay (NCATS).
“And” between values parts separate entries of the source, which are not always exact repeats. Equal values may be shown once. Inconclusive means that the source gave no clear call. Such entries were picked first, then a sample of the others. Potencies of inconclusive entries are doubtful fits and often do not repeat. The source made the active and inactive calls. The call rests on the fitted dose curve; in most records, active means well fitted inhibition curve with a large enough effect; inconclusive means small, poorly fitted or top-dose-only effect; inactive means no such curve, though single readings can be large or run the other way.

Experiment: Primary qHTS for inhibitors of nuclear receptor binding SET domain protein 2 (NSD2) in an RCH-ACV wild type WT cells (2C) (AID 1645877); further: nearly all actives have a fitted effect of over 70% in size
Conditions: RCH-ACV (leukaemia line) NSD2 WT (2C) viability, CellTiter-Glo, 72 h; series mostly up to 44.9 µM
Source text: Assay Provider: Jonathan D. Licht, MD
University of Florida College of Medicine, Gainesville, FL
Mutations in epigenetic regulators are common in relapsed pediatric acute lymphoblastic leukemia (ALL). Here, we uncovered the mechanism underlying the relapse of ALL driven by an activating mutation of the NSD2 histone methyltransferase (p.E1099K). […] Correction of this mutation restored glucocorticoid sensitivity. The transcriptional response to glucocorticoids was blocked in NSD2 mutant cells due to depressed glucocorticoid receptor (GR) levels and the failure of glucocorticoids to autoactivate GR expression. […] Pre-treatment of NSD2 p.E1099K cell lines and PDX samples with PRC2 inhibitors reversed glucocorticoid resistance in vitro and in vivo.
High-throughput drug screening of isogenic RCH-ACV cell lines was performed at the National Center for Advancing Translational Science (NCATS), National Institutes of Health as previously described (1). Briefly, isogenic RCH-ACV NSD2 p.E1099K mutant (9B) and WT cells (2C) were plated at 500 cells/well in a 1536-well plate with a 72-hour incubation with compounds prior to addition of CellTiter-Glo to assess cell viability. NCATS libraries screened include: NPC, MIPE 5.0, Kinase and NPACT. To determine compound activity in the qHTS assay, the concentration-response data for each sample was plotted and modeled by a four-parameter logistic fit yielding IC50 and efficacy (maximal response) values. The area under the curve (AUC) of the dose-response curve ensures both efficacy (magnitude of cell killing) and potency (concentration that elicits cell killing) are accounted for in the analysis of activity.
1. Tobie D Lee, Olivia W Lee, Kyle R Brimacombe, Lu Chen, Rajarshi Guha, Sabrina Lusvarghi, Bethilehem G Tebase, Carleen Klumpp-Thomas, Robert W Robey, Suresh V Ambudkar, Min Shen, Michael M Gottesman, Matthew D Hall. A High-Throughput Screen of a Library of Therapeutics Identifies Cytotoxic Substrates of P-glycoprotein. Mol Pharmacol. 2019, Nov;96(5):629-640.
On the % scale 0 is the no-effect control and ±100 the full control effect; tags describe the fitted curve by direction and shape.

SMILES | Potency | activity change, negative = cell killing
CC1=C(/C=C/C(C)=C/C=C/C(C)=C\C(=O)O)C(C)(C)CCC1 | inactive | 
Cc1c(CN2CCN(C(=O)[C@H](C)O)CC2)sc2c(N3CCOCC3)nc(-c3cnc(N)nc3)nc12 | active: 0.0742 µM | 
[O-][n+]1cccc(-c2nc3c(Cl)cccc3cc2[C@@H](Nc2ncnc3cccnc23)C(F)(F)F)c1 | active: 0.468 µM | 
CCCCCCCCCCCCC/C=C/[C@@H](O)[C@H](CO)N(C)C |  | inactive: 4.48% [at 4.96 µM]
C[C@H]1O[C@H](O[C@H]2[C@H](O)[C@@H](O)[C@@H](O[C@H]3[C@H](O)[C@@H](O)C(O)O[C@@H]3CO)O[C@@H]2CO)[C@H](O)[C@@H](O)[C@@H]1N[C@H]1C=C(CO)[C@@H](O)[C@H](O)[C@H]1O (stereo not given in full) | inactive | 
CC1CCC2(O1)C(C)(C)CC(O[C@@H]1O[C@H](CO[C@@H]3OC[C@](O)(CO)[C@H]3O)[C@@H](O)[C@H](O)[C@H]1O)CC2(C)O (stereo not given in full) | inactive | 
CC(=O)OCC1(O)CCC2C(COC3OC(CO)C(O)C(O)C3OC(=O)/C=C/c3ccc(O)cc3)=COC(OC(=O)CC(C)C)C21 (stereo not given) | inconclusive: 6.82 µM [inhibitor, single point] | 
CC(C)(C)NC(=O)c1cncn1C1CCN(c2ccc(-c3nnc(C(F)(F)F)o3)cn2)CC1 | active: 2.35 µM | 
CC1(N)CCN(c2cnc(-c3cccc(Cl)c3Cl)c(N)n2)CC1 | inactive | 
c1ccc(CNCc2ccc(CN3CCCNCCNCCCNCC3)cc2)nc1 | inactive | 
Cc1nc(C)c(CN2CCN(C(c3ccc(F)cc3)c3ccc(F)cc3)CC2)nc1C | inconclusive: 33.2 µM [inhibitor, single point] | 
NC(=O)c1cccc2c(NC(CN3CCC3)c3ccc(Cl)c(C(F)(F)F)c3)ncnc12 (stereo not given) | active: 1.32 µM | 
CC(=O)N[C@H]1[C@H](O[C@H]2CC[C@]3(C)C4CC=C5[C@@H]6CC(C)(C)CC[C@]6(C(=O)O)[C@H](O)C[C@@]5(C)[C@]4(C)CC[C@H]3C2(C)C)O[C@H](CO)[C@@H](O)[C@@H]1O (stereo not given in full) | inconclusive: 4.3 µM [inhibitor, partial curve, poor fit] | 
NC(=O)C1=C(O)[C@@]2(O)C(=O)C3=C(O)c4c(O)cccc4C[C@H]3C[C@H]2CC1=O | active: 3.32 µM | 
CCC1CCCCN1C(=O)n1ncc(C(O)(c2ccccc2)c2ccccc2)n1 (stereo not given) | active: 14.8 µM | 
C/C=C/C(O)C1OC(=O)CC1Nc1ccc(C(=O)O)cc1 (stereo not given) | inactive | 
CC(C)(O)CNc1ncc(-c2ccnc(Nc3ccncc3)n2)c(CC2CC2)n1 | active: 3.72 µM | 
CC1(C)SCCN(S(=O)(=O)c2ccc(OCC#CCO)cc2)[C@H]1C(=O)NO | inconclusive: 18.6 µM [inhibitor, partial curve] | 
CONC(=O)Nc1ccc(-c2sc3c(c2CN(C)C)c(=O)n(-c2ccc(OC)nn2)c(=O)n3Cc2c(F)cccc2F)cc1 | inconclusive: 37.2 µM [inhibitor, single point] | 
Nc1nc(N)c2nc(-c3cccc(Cl)c3)c(N)nc2n1 | inconclusive: 2.09 µM [inhibitor, full curve] | 

SMILES | Potency | activity change, negative = cell killing
CCOC(=O)c1cc2ccc(O)cc2oc1=O | inactive | 
C=CCNC1=C2CC(C)CC(OC)C(O)C(C)/C=C(\C)C(OC(N)=O)C(OC)/C=C/C=C(\C)C(=O)NC(=CC1=O)C2=O (stereo not given) | active: 1.32 µM | 
CC[C@@H](Oc1cccc(CN(CCCOc2ccc(OC)cc2)c2nc3ccccc3o2)c1)C(=O)O | inconclusive: 26.3 µM [inhibitor, partial curve, poor fit] | 
CC1(C)C(=O)N2c3ccccc3[C@]3(CC(n4cnc5ccccc5c4=O)C(=O)O3)[C@H]2N1O (stereo not given in full) | inactive | 
Cc1[nH]nc2ncc(C(=O)N3CCC[C@H]3c3ccc(Cl)cc3)cc12 | active: 0.296 µM | 
CC(C)(C)S(=O)(=O)c1ccc2nccc(Nc3n[nH]c4ccc(F)cc34)c2c1 | inconclusive: 13.2 µM [inhibitor, partial curve, poor fit] | 
COc1cc2c(NC3CCN(C)CC3)nc(N3CCCN(C)CC3)nc2cc1OCCCN(C)C | inactive | 
Cc1c(-c2ccc(-c3ccccc3F)cc2)nc2ccc(F)cc2c1C(=O)O | active: 0.148 µM | 
O=C1NC(=O)/C(=C/c2ccc3nccc(-c4ccncc4)c3c2)S1 | active: 920 nM and active: 525 nM | 
CC1(C)OCCn2c1nc1c(N3CCOCC3)nc(-c3cnc(N)nc3)nc12 | inconclusive: 0.525 µM [inhibitor, full curve] | 
CC(C)Oc1ccc(-c2nn([C@@H](C)c3oc4ccc(F)cc4c(=O)c3-c3cccc(F)c3)c3ncnc(N)c23)cc1F | inconclusive: 0.833 µM [inhibitor, full curve] | 
Fc1cccc(-n2cnc3c(NCc4nc5c(F)c(F)ccc5[nH]4)nc(N4CCOCC4)nc32)c1 | active: 0.166 µM | 
Nc1ncc(C(=O)NC2CN(C(=O)C3CC3)C2)c2ccc(-c3cccc(F)c3)nc12 | inconclusive: 4.68 µM [inhibitor, full curve, poor fit] | 
CC(C)(O)CC[C@@H](O)[C@](C)(O)[C@H]1CC[C@@]2(O)C3=CC(=O)[C@@H]4C[C@@H](O)[C@@H](O)C[C@]4(C)[C@H]3CC[C@]12C | inactive | 
Cc1onc(-c2ccc(F)cc2)c1COc1ccc(C(=O)N2CCS(=O)(=O)CC2)cn1 | inactive | 
CS(=O)(=O)c1ccc([C@@H](CC2CCCC2)C(=O)Nc2nccs2)cc1 | inconclusive: 23.5 µM [inhibitor, partial curve] | 
O=C1CCCC2=C1C(c1ccncc1Br)N=C(Nc1nc3ccccc3o1)N2 (stereo not given) | inconclusive: 23.1 µM [inhibitor, single point] | 
CNC(=O)Cn1cc(-c2ccc3c(c2)C(F)CC32NC(=O)N(CC(=O)N(Cc3ccc(F)cc3)C(C)C(F)(F)F)C2=O)cn1 (stereo not given) | active: 0.132 µM | 
N#C/C(=C(/N)Sc1ccc(N)cc1)c1ccccc1C(F)(F)F | inconclusive: 18.6 µM [inhibitor, partial curve] | 
C=C[C@H]1CN2CC[C@H]1C[C@@H]2C(O)c1ccnc2ccc(OC)cc12 (stereo not given in full) | inconclusive: 17.9 µM [inhibitor, single point] | 
